Measurements published in paper PMC4336329 (PLoS ONE, 2015).
About 14,000 (4.5%) of roughly 310,000 compounds showed an effect of 50% or more. The effect is printed as a negative number. This is one part of the list.

Target: human ether-à-go-go-related gene (hERG) potassium channel (human, UniProt Q12809)
Test: primary screen, population patch clamp on CHO cells stably expressing hERG
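Further: peak tail current of the secondary pulse compared with the same well before compound.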

human ether-à-go-go-related gene (hERG) potassium channel, sequence (Q12809 whole entry, looked up): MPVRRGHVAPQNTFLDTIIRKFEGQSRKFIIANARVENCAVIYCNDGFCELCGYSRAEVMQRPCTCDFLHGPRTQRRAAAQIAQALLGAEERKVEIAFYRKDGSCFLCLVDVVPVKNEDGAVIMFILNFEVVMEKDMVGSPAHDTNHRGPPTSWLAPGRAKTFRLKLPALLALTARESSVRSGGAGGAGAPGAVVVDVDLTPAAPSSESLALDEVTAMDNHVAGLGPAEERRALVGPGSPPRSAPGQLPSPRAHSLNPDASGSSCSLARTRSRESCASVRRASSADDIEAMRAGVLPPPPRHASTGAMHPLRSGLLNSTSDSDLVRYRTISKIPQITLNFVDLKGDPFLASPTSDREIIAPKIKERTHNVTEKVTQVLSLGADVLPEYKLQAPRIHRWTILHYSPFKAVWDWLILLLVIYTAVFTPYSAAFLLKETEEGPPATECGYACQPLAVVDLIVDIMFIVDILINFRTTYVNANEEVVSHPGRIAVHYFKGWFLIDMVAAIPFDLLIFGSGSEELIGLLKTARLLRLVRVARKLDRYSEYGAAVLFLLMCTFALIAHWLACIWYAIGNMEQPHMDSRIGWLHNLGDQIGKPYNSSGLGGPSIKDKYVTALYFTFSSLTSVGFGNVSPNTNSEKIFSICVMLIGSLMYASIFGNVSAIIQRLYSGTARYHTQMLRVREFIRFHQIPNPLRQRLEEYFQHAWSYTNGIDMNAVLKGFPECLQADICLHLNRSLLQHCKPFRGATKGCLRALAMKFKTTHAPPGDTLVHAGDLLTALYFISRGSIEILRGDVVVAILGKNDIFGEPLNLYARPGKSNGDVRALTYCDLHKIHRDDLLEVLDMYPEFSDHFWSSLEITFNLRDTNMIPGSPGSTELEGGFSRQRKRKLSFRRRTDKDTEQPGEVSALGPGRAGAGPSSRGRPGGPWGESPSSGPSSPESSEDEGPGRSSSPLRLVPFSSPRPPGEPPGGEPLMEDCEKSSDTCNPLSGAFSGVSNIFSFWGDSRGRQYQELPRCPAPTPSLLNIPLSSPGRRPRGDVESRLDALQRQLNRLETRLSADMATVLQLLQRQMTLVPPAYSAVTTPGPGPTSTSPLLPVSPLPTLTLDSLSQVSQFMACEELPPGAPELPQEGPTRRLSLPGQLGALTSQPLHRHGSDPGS

SMILES | hERG current change (%, negative = inhibition) at 10uM [%]
O=C(CCS(=O)(=O)c1cccc2nsnc12)NCc1ccccc1Cl | 16.6
COCCCN(CC(=O)Nc1ccc(N2CCOCC2)cc1)S(=O)(=O)c1ccc(C)cc1 | 22.8
COC(=O)c1sc(NC(=O)C(C)c2ccccc2)nc1C (stereo not drawn) | -2.3
COC(=O)C1=C(c2ccccc2OCc2ccccc2)C[C@@H]2CC[C@H]1N2C(=O)NCc1cccc(F)c1 | 9.86
Cc1cc(C(=O)CN2C(=O)NC3(CCCc4ccccc43)C2=O)c(C)n1Cc1ccccc1 (stereo not drawn) | 9.25
Cn1cc(SCC(=O)NCCc2ccccc2)c2ccccc21 | -0.731
CC(CN(C(N)=O)c1ccccc1O)C(=O)O (stereo not drawn) | -6.13
CCCc1cc(=O)n2[nH]c(Cc3ccccc3)nc2n1 | 6.61
CC(=O)COc1ccc2c(C)c(-c3ccccc3)c(=O)oc2c1 | 8.67
O=C(NCCCN1CCCC1)c1ccc(CS(=O)(=O)c2c(Cl)cccc2Cl)o1 | -10.5
COC1CCCCC1NS(=O)(=O)c1ccccc1 (stereo not drawn) | 5.01
CCCCC(=O)N=c1sc2cc(S(C)(=O)=O)ccc2n1C | -0.473
Cc1ccc(CSCC(=O)NCc2cccnc2)cc1 | 7.04
CC1(C)NC(=O)N(CC(O)CN(c2ccccc2)S(=O)(=O)c2ccccc2[N+](=O)[O-])C1=O (stereo not drawn) | 13.7
CCOC(=O)C1=C(C)NC(SC)=C(C#N)C1CC(C)C (stereo not drawn) | -12.3
O=C1c2ccccc2C(Nc2ccccc2)N1Cc1ccc2c(c1)OCO2 (stereo not drawn) | -0.624
CCCCOC1(c2ccccc2)NC(=S)NN=C1c1ccccc1 (stereo not drawn) | 9.03
CCN(Cc1cc2ccccc2[nH]c1=O)C(=O)C(C)C | -12.8
CC(C)(CNC(=O)/C=C/c1ccc(F)cc1)CNC(=O)/C=C/c1ccc(F)cc1 | -26.3
O=C(Cn1nnc2ccccc21)NCc1ccccc1 | 4.47
CSCCC(N=C(NS(=O)(=O)c1ccc(C)cc1)c1ccccc1)C(=O)O (stereo not drawn) | 0.808
CC1SC(c2ccccc2)N(CC(O)c2ccc([N+](=O)[O-])cc2)C1=O (stereo not drawn) | -80.6

SMILES | hERG current change (%, negative = inhibition) at 10uM [%]
CC(=O)Nc1sc2c(c1C(c1ccccn1)N1CCCC1)CCCC2 (stereo not drawn) | -10
Cc1ccc(-c2cc(C(F)F)n3ncc(C(=O)N4CCCc5ccccc54)c3n2)cc1 | 3.94
CCN(c1ccccc1)S(=O)(=O)c1cc(NC(=O)CSc2n[nH]c(=O)[nH]c2=O)ccc1Cl | 10.4
O=C(CSc1nnc(Nc2ccccc2F)s1)Nc1cccc(S(=O)(=O)N2CCCCC2)c1 | -6.58
O=c1ccn(Cc2ccccc2Cl)cc1 | 8.8
COc1ccc(OC)c(NC(=O)NNC(=O)COc2ccc(-c3ccccc3)cc2)c1 | -18
Cc1ccc(/C=[N+](/C)[O-])cc1 | 13.8
O=C(NCC(c1ccco1)N1CCc2ccccc21)c1ccccc1Br (stereo not drawn) | -29.3
CCc1nc(N2CCN(CC(=O)NCC3CCCO3)CC2)c(C#N)c2c1COC(C)(C)C2 (stereo not drawn) | -0.194
CC(C)CNC(=O)C1CCN(CC2CCCCC2)CC1.O=C(O)C(=O)O | 8.99
S=c1[nH]nc(Cc2ccccc2)n1Cc1ccco1 | -5.08
CCn1cc(C(=O)N(C)CC(OC)OC)c(=O)c2cc(S(=O)(=O)N3CCOCC3)ccc21 | 14
c1ccc(-c2ccc(Oc3cc(N4CCOCC4)nc(-c4ccccc4)n3)cc2)cc1 | 15
Cc1cc(C(C)(C)CC(C)(C)C)ccc1OCCOCC[N+](C)(C)Cc1ccccc1.[Cl-] | -80.9
COc1cccc(C2C(C#N)=C(N)SC(c3ccccc3)C2[N+](=O)[O-])c1 (stereo not drawn) | 7.43
O=C(NNc1nc2cc3c(cc2s1)OCO3)c1ccc(F)cc1 | 2.26
CC(C)(C)NC(=O)c1ccc2c(c1)N(CC(=O)N1CCN(c3ccccc3F)CC1)C(=O)C(C)(C)O2 | -2.41
O=C(N=C1SC2CS(=O)(=O)CC2N1c1ccc(Cl)cc1)C1CCCO1 (stereo not drawn) | 8.45
O=C(CSc1nnc(-c2ccco2)o1)c1ccc[nH]1 | 8.21
CCc1ccc(-n2cc(-c3ccc([N+](=O)[O-])cc3)[nH]c2=S)cc1 | 7.22
CC(=O)Nc1cccc(C2=CC(c3ccco3)n3ncnc3N2)c1 (stereo not drawn) | 1.29
O=C(CCc1ccccc1)N/N=C\C1CC=CCC1 (stereo not drawn) | 7.94

SMILES | hERG current change (%, negative = inhibition) at 10uM [%]
CCc1ccccc1N(C(=O)c1ccco1)C(C(=O)NC1CCCC1)c1cccnc1 (stereo not drawn) | -15.8
O=c1c2ccccc2nc2n1C(CSc1ccccc1)CS2 (stereo not drawn) | -19.6
Cc1nn(-c2ccccc2)c(N2CCCC2)c1/C=C1\N=C(c2ccccc2)OC1=O | 11.7
COc1ccccc1-n1c(SCC(=O)Nc2cc(C)on2)nc2c([nH]c3ccccc32)c1=O | 0.118
Nc1c(C(=O)[O-])sc2nc(-c3ccccc3)cc(-c3ccc(Cl)cc3)c12 | 23
C=Cc1ccc(CN2CCCN(Cc3ccc(Cl)cc3)S2(=O)=O)cc1 | 18.1
O=C(CCN1C(=O)c2ccccc2C1=O)Nc1cccnc1 | -5.04
CCCCCC(=O)Nc1cccc(C2=NOC3(C2)C[C@@H](C(N)=O)N(C(=O)Cc2ccc([N+](=O)[O-])cc2)C3)c1 (stereo partly drawn) | -38.1
CCc1ccc(NC(=O)CC2C(=O)NCCN2C(=O)c2ccccc2OC)cc1 (stereo not drawn) | 9.63
O=C(CCS(=O)(=O)c1ccc(Br)cc1)N1CCC2(CC1)OCCO2 | -1.34
COc1cccc(-n2c(CN3CCN(Cc4ccccc4)CC3)nc3ccc([N+](=O)[O-])cc3c2=O)c1 | -52.8
CCOC(=O)c1c(=O)n(O)c2ccc(OC)cc2[n+]1[O-] | -4.62
Cc1ccccc1-n1nc2c(c1NC(=O)CC(C)C)CS(=O)C2 (stereo not drawn) | 13.6
COc1ccc(-n2c(SCC(=O)NCC3CCCO3)nc3c(c2=O)SCC3)cc1OC (stereo not drawn) | 1.12
CCCCOC(=O)CSC1=C(C#N)C(c2ccccc2OCC)C(C#N)C(=O)N1 (stereo not drawn) | 4.13
C/C(=N\N=C(N)N)c1ccc(Cl)cc1 | -42.8
COc1ccc(COC(=O)C2=C(C)NC(=O)NC2c2cc(OC)ccc2OC)cc1 (stereo not drawn) | 10.4
Cc1ccc(-c2nc(C)sc2CC(=O)OCC(=O)Nc2cccc([N+](=O)[O-])c2)cc1 | -33.5
COC(=O)c1ccccc1SCc1csc(C)n1 | 15.2
COc1ccc(NC(=O)C2CC(=O)N(C(C)C)C2)cc1 (stereo not drawn) | 11.1
O=C(CSc1nc2ccccc2c(=O)n1CC1CCCO1)NCc1ccc2c(c1)OCO2 (stereo not drawn) | -30.2
CN(C)c1ccc(C2Nc3ccccc3C(=O)N2CCCN2CCOCC2)cc1 (stereo not drawn) | -9.99

SMILES | hERG current change (%, negative = inhibition) at 10uM [%]
Cc1nc(NC(=O)C2CCCCC2)sc1C | -17.9
O=C(O)CC1S/C(=N/N=C/c2ccc(-c3ccccc3[N+](=O)[O-])o2)NC1=O (stereo not drawn) | -1.58
CCCc1cc(C(=O)OC)c(NC(=O)c2cc(C)on2)s1 | 1.01
O=C(Cc1ccc([N+](=O)[O-])cc1)N1N=C(C2CC2)CC1(O)C(F)(F)F (stereo not drawn) | 1.49
CCn1c(Cc2ccccc2)nnc1SCC(=O)Nc1ccc(C)cc1 | -10.2
CCCCOc1ccc(N=Nc2ccc(N)nc2N)cn1 | 10.8
O=C(O)C(Cc1c[nH]c2ccccc12)NS(=O)(=O)c1ccc2ccccc2c1 (stereo not drawn) | -2.25
COc1cccc(CNCc2ccccc2OC)c1.O=C(O)C(=O)O | -8.39
O=C(NCc1ccccc1F)C1CCCN(C(=O)NC2CCCCC2)C1 (stereo not drawn) | -2.97
Cn1c(SCC(=O)c2ccccc2)ncc(C(=O)Nc2ccccc2)c1=O | 6.66
COc1ccc(S(=O)(=O)Cc2ccc(C(=O)NCc3ccccc3OC)o2)cc1 | -41.6
COCCCNC(=S)N1CCN(S(C)(=O)=O)CC1 | 11.6
O=C(O)CCSc1nnc(COc2cccc3cccnc23)n1-c1ccccc1 | 12.1
CC(C)CCNC(=O)C1CCC(=O)N1C(C)C (stereo not drawn) | 11.5
O=C(CCC(=O)N1CCN(C2CCCCC2)CC1)Nc1nnc(C(F)(F)F)s1 | -19.8
Cc1[nH]n(-c2ccc([N+](=O)[O-])cc2)c(=O)c1/C=N/N1CCOCC1 | 0.128
CC(=O)N1CC(C)c2scc(C)[n+]2-c2ccccc21.[Cl-] (stereo not drawn) | -17.2
CCCOC(=O)C1C2C=CC(C3CC23)C1C(=O)OCC(=O)c1ccccc1 (stereo not drawn) | -22.8
CC(C)n1c(CN(C)c2ccccc2)nc2ccccc21.Cl | -0.273
CCOC(=O)/C(C(N)=NCc1ccco1)=C(/O)c1ccccc1 | -5.87
CCOc1ccccc1NC(=O)CCN1CCN(S(=O)(=O)c2ccc(Br)cc2)CC1 | -6.62
